Assay results published in the supplement of paper PMC10126150.
Values marked as one replicate rest on one cluster of the flow cell; about a third of the high ones do not repeat.

System: ATP
Test: switch fluorescence ratio, 500 uM ATP over buffer (Cy3 cluster intensity, sum of 5 cycles each) (fold (ratio)); higher = stronger signal-on switching upon ATP binding; sequences stand for … in TCGTCGGCAGCGTCAGATGTGTATAAGAGACAGTTTTTTTTTTTTTTTTTTTTTTTTT…TC
Details: aptamer strand: ATP DNA aptamer (quencher-CACCTGGGGGAGTATTGCGGAGGAAGG + anchor), 100 nM annealed; ATP concentration: 500 uM; one replicate
Procedure, shortened: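 Clusters carrying Cy3-labelled switching strands on a modified Illumina MiSeq flow-cell were annealed to 100 nM quencher-labelled ATP aptamer and imaged in selection buffer. They were imaged again after 15 min with 500 uM ATP at 22 °C, over five buffer/ATP cycles with NaOH stripping and re-annealing in between. For each cluster, the fluorescence ratio is the summed Cy3 intensity of the target cycles divided by that of the buffer cycles, averaged per switch-domain sequence. Clusters outside 100-1000 RFU were left out.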
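Further: ATP exposure 15 min at 22 °C before imaging.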

| Sequence | switch fluorescence ratio |
| --- | --- |
| TGGGTCTA | 1.05 |
| CAAGGCTGGA | 0.964 |
| GGTAGTAG | 1.01 |
| GGGCCATCAG | 0.922 |
| GGCATAGGTT | 0.972 |
| GGTACTCTTG | 0.999 |
| GATAGCGGGT | 1.01 |
| TTAGGTGACA | 1.02 |
| CCATGTTAGA | 0.939 |
| TTATACGGTC | 0.989 |
| GATGAACTGA | 1.05 |
| CCGTATTTA | 1 |
| GATTAAGG | 0.965 |
| TTGACTGGGC | 0.92 |
| AACCACTAAC | 1.23 |
| CGAATTGAGG | 0.982 |
| GGGGCTACGC | 1.03 |
| GGTCTTAATT | 1 |
| CGTCTTTC | 1.02 |
| ATCTTACTAT | 1.01 |
| ACAGCGCATG | 1.02 |
| GACGATAGGA | 1.07 |
| TAGAATTGAC | 1.06 |

| Sequence | switch fluorescence ratio |
| --- | --- |
| CTTGGCCCGA | 1.01 |
| CGAGAGACTT | 1 |
| CGGGCTCCCT | 1.03 |
| GGCACGAAGT | 0.98 |
| TCGGAGCCGC | 1.13 |
| TGAATAGGAC | 1.05 |
| AGATGGTTTA | 0.982 |
| CGGCCTTGTA | 0.994 |
| TAAGCGGTCG | 1.05 |
| TTTCGCTCAG | 1 |
| CTCTTTATGC | 1.13 |
| CAGTCTCTTT | 1.04 |
| GAGCATAATA | 1.2 |
| TCCAAATTGC | 1.01 |
| TAATCGGCCA | 1.06 |
| GCAACAGGGG | 1.89 |
| TTCACTTGAT | 0.992 |
| ATGTTGCGCG | 1.05 |
| GAGTAGATTT | 0.973 |
| CAGTACCTAG | 1.05 |
| TTATGTGCTC | 1.04 |
| TGCCCTACGA | 1.08 |
| CAGAAGATGC | 1 |

| Sequence | switch fluorescence ratio |
| --- | --- |
| TCATCCCAG | 1.14 |
| TCGAAATGTC | 1.16 |
| ATCACGGAAT | 1.09 |
| CACTATCGGG | 1.02 |
| GCATATGTGC | 0.991 |
| GCCGCCCGGA | 0.987 |
| TTTCCTGGAA | 1.03 |
| GACATGTGTG | 1.01 |
| CGGCATGTTT | 1 |
| TTGGTCGCCG | 0.987 |
| TAATACGAGG | 0.975 |
| GCGAGGCATG | 1.19 |
| TCGAGTCGAT | 0.996 |
| CTGAGCAGGT | 1.38 |
| GTGGTATCG | 0.966 |
| TTGCCTCTTT | 1.02 |
| TCTTTTAGAG | 0.989 |
| GATATGAGA | 1.03 |
| TCCGGAAGCG | 1.59 |
| AATTGCTTGG | 1.02 |
| ATTTAGAGAC | 1.01 |
| AAGGTAGGCA | 1.01 |
| AGAAAATGTT | 0.968 |

| Sequence | switch fluorescence ratio |
| --- | --- |
| AAACGAACT | 1.2 |
| CGTCTGCCCT | 1.01 |
| GTGTGCTAGC | 0.96 |
| CCTGAATCAA | 1.07 |
| TGACTGCCAG | 0.981 |
| TTGGCTCACA | 0.999 |
| AGTTTCCATT | 1 |
| GTGATTAACC | 1.03 |
| CTGCTACAAC | 1.39 |
| GATATCTGCG | 0.969 |
| AGTGATGGAT | 0.983 |
| CGTTGGGTTA | 0.969 |
| GGGAAGGTCG | 0.978 |
| GGTCTTCTTG | 0.955 |
| CATAGCGTTT | 1.03 |
| CTAACGAGCA | 1.15 |
| TTGGACTTTT | 0.969 |
| AGCTGTAGGG | 1.04 |
| GCCCGTTGCG | 0.969 |
| TTAAGATCGC | 0.982 |
| TTTATTCTTG | 1.01 |
| GGATGAATGT | 0.974 |
| TGCGGATCGT | 1.02 |

| Sequence | switch fluorescence ratio |
| --- | --- |
| CTGTTGGAA | 0.978 |
| GAGTGACGTG | 1.03 |
| TTCCAGTACT | 1.09 |
| GAATCAGGGC | 1.02 |
| CTTATGAGAT | 0.983 |
| GGACTCTGCT | 1.1 |
| TTAAAACCCT | 1.15 |
| AAAACGGTGG | 0.99 |
| CGGGCCATGC | 1.09 |
| CCATGAGCTA | 1.55 |
| TTACATGAGA | 0.991 |
| ATCGTTGAAG | 0.963 |
| CGCCTTCCTA | 2.07 |
| GCGTTTCTGG | 1.01 |
| CTGCTAGGCG | 1.07 |
| GCAGCCGGCA | 1.01 |
| GACTTTCATT | 1.07 |
| TAAGGGTGCG | 0.958 |
| AAGGGGCCCG | 1.01 |
| ATACCCAGCA | 1.07 |
| GTTGCGGATG | 0.967 |
| TTGGGTACTT | 1.21 |
| CTTGGAACTA | 0.973 |

| Sequence | switch fluorescence ratio |
| --- | --- |
| TTTCATGG | 1 |
| TTAGTCGATC | 1.05 |
| GGAAGAGAGT | 1 |
| ATCTTCCTGA | 0.983 |
| AGCGGAAGC | 1.03 |
| AGAGCTTTCT | 0.977 |
| GCAGGAAAAG | 1.11 |
| GGAGGCACGC | 0.998 |
| AGGATTAGCG | 1.01 |
| GAATTGCGGA | 0.98 |
| CACGAGAG | 1.05 |
| TGCCCGGCAG | 1.03 |
| TTACGACAGG | 1.06 |
| CGCGGGTGTC | 1.04 |
| CATTGTATTT | 0.965 |
| TAGAATTCGT | 0.999 |
| TTACAGTCTA | 1.01 |
| GTACGCCCAA | 1.23 |
| ATCAATTCGC | 1.05 |
| ATGACGATAC | 2.01 |
| CGTGGTGCTA | 0.962 |
| TTAGACAGCT | 1.03 |
| ATGTCGCGGT | 1.01 |

| Sequence | switch fluorescence ratio |
| --- | --- |
| AGCATCAGGC | 0.966 |
| CAACATATTA | 1.01 |
| ATGGACGATG | 1.01 |
| AGCTAGAAGG | 0.978 |
| CGTATTCATG | 0.987 |
| GCGTAGAAA | 1.03 |
| ATATACTCTA | 1.06 |
| TTTGCC | 1.04 |
| TTAATCTACC | 1.14 |
| TGAGCAGTTA | 1.02 |
| CGGCGCTGAT | 1.07 |
| GTCCTGCTAG | 0.988 |
| CTGTAGGGTG | 0.976 |
| GAATATTTAC | 1.05 |
| TAAAGCGG | 0.988 |
| CTGCGCCTAA | 1.16 |
| ATCCGAATCG | 1.04 |
| GGGTTGCTCC | 1.01 |
| TGCGGCATGC | 1.11 |
| TAAGTGATAC | 2.8 |
